# The other results are listed elsewhere or left out. At the low end of the ranking the order means little.
# Target: T1, GST-Rok (full length) (UniProt O34857)
# T1 sequence: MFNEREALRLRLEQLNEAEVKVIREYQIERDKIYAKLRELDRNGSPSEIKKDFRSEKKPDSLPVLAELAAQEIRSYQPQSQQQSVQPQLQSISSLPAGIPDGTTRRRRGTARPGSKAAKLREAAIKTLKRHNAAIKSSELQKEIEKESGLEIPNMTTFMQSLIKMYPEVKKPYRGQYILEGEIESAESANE
# Experiment: protein binding microarray;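 further: rank score from −0.5 (least bound) to 0.5 (best bound)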
# Conditions: Rok is a gene silencer of Bacillus subtilis; high values mean tight binding; most listed sequences are background and not binding sites; double strand, one strand shown
row,Sequence,binding signal [E-score]
1,GCAGCCAA,-0.136
2,ATTAGTTA,0.311
3,GTACGATA,0.252
4,CATGCGAG,-0.175
5,CATAGAGG,-0.0596
6,AACAAAAA,-0.019
7,GGAAAAAA,-0.0587
8,CAGGTTAG,-0.184
9,CACAATAA,0.26
10,CACTGTCG,-0.0512
11,GATAATAA,0.369
12,AACCGACG,-0.112
13,CGCTGCTA,0.116
14,ACGACCGT,-0.00631
15,CCACCCCG,-0.345
16,ATGAGTAG,0.316
17,AGCATCTG,-0.053
18,CATAACCC,-0.169
19,AACACCGG,-0.14
20,GCTCGAGA,-0.0197
21,CTACCTGC,-0.07
22,ACCGGCGC,-0.232

row,Sequence,binding signal [E-score]
1,AAAGAGGC,-0.25
2,GATACCGA,0.136
3,AACGGGAA,0.0903
4,AACCTTAT,0.0669
5,ATCACCTA,0.102
6,ATAGATGC,0.162
7,ATCGTAGC,0.0116
8,AAGATTCA,0.126
9,CCAGGGTA,-0.0603
10,CTTAACCC,0.0276
11,AATTGAAG,0.209
12,GCCCCGAC,-0.352
13,AATATTGC,0.117
14,GTGCATAA,0.166
15,CATTGCAC,0.141
16,CGCTGCAA,0.0744
17,CCTAGTAC,0.125
18,AAAGAGTT,0.073
19,ATCAGTCA,-0.0737
20,ACAGCCCA,-0.143
21,AGGTAGCG,0.22
22,AACCATTG,-0.045

row,Sequence,binding signal [E-score]
1,CAGTGCAG,-0.211
2,TAAAGGAA,-0.0673
3,CTTTGAAA,-0.0953
4,CTACGGGC,-0.0326
5,CAAAAAGA,-0.0731
6,CGGCCGCA,-0.313
7,GAAAATGA,0.0154
8,CCTAACGC,-0.104
9,CAGACCCC,-0.473
10,AAACCAAG,-0.0743
11,GGGGTGCA,-0.195
12,AATCTTGC,0.0665
13,AGCGGTGG,-0.157
14,AGCAATAT,0.284
15,ATGCCGAC,-0.0736
16,ACCTTCCC,-0.261
17,ATGAGCTC,-0.222
18,ACCGTAGG,-0.168
19,GATGTGCA,0.00441
20,AGCCAGTA,-0.153
21,CACGTTGG,-0.117
22,CGAAATTC,0.341

row,Sequence,binding signal [E-score]
1,GCATGCGA,-0.148
2,ACGGAACG,-0.0661
3,TCCCTAGA,-0.0578
4,AAGAGTCT,-0.0329
5,CGATAGAC,0.0161
6,CCCACCGC,-0.308
7,AATCTTAA,0.0509
8,AAATGTAG,0.297
9,AAACATCG,0.00727
10,CCCTGAAA,-0.256
11,AATTTCCT,0.211
12,CGCGATGC,-0.0559
13,AGTAGATA,0.442
14,GTAGCGTA,0.291
15,CCTCTGCG,-0.0339
16,GACGTTCC,-0.151
17,TACGCCGA,-0.0744
18,GCAAGGAC,-0.139
19,AAACATAA,0.311
20,CGTTCTCA,0.242
21,AACGGCGA,-0.226
22,CACAACTG,-0.0314

row,Sequence,binding signal [E-score]
1,ACCAATAG,0.134
2,CTCCCCGA,-0.3
3,CGCTGCGC,-0.241
4,ACAACTTG,0.187
5,CCGTCTTC,-0.214
6,TCGCTTAA,0.105
7,AGGACATA,0.0316
8,ATTACCAA,0.181
9,CTAGCTTC,0.0674
10,GGAACTCC,-0.202
11,CCGCGAGA,-0.205
12,AGAAGTGC,0.159
13,GAGCGGCA,-0.282
14,TACACCGA,0.000776
15,AAGGCTGG,-0.238
16,CCGAAGTC,-0.227
17,ACCCATCG,-0.0326
18,TTATAGAA,0.198
19,ATTACAGG,0.0681
20,AAGGGGCG,-0.371
21,ACCTCGGA,0.102
22,ACGGACTC,-0.246

# Source: paper PMC6212790
